According to the supplement of paper PMC11876631:
± gives the standard deviation of the averaged measurements. Laboratory Escherichia coli strains with one amino-acid change in an essential protein, pooled on minimal glucose agar with carbenicillin or gentamicin at twice the control MIC (plus kanamycin and chloramphenicol for the plasmids), 48 h. Fold change of barcode share against drug-free plates; higher = less susceptible. Active = above 20 in both replicates (the paper's putatively resistant). '<' = one read or none on drug, '>' = one read or none on a drug-free plate. Shares are relative, so most strains fall below 1 when a few take over. Listed are strains with at least 15 reads on both drug-free plates, and hits; most hits rest on fewer reference reads. Replicate rank correlation about 0.5. Edits are read from barcodes.

Target: Escherichia coli (laboratory strain)
Assay: barcode share on antibiotic plates over drug-free plates; higher = less susceptible
Method: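 A pool of E. coli strains, each edited to carry one amino-acid change in an essential protein, was grown for 48 h on minimal glucose agar with or without antibiotic; strain barcodes were sequenced; mean of two replicates.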

[1] = antibiotic: carbenicillin, 2× MIC (3.1 µg/mL)
[2] = antibiotic: gentamicin, 2× MIC (MIC 0.45 µg/mL)

B1: lolC M165Q (protein)
chain: MYQPVALFIGLRYMRGRAADRFGRFVSWLSTIGITLGVMALVTVLSVMNGFERELQNNILGLMPQAILSSEHGSLNPQQLPETAVKLDGVNRVAPITTGDVVLQSARSVAVGVMLGIDPAQKDPLTPYLVNVKQTDLEPGKYNVILGEQLASQLGVNRGDQIRVQVPSASQFTPMGRIPSQRLFNVIGTFAANSEVDGYEMLVNIEDASRLMRYPAGNITGWRLWLDEPLKVDSLSQQKLPEGSKWQDWRDRKGELFQAVRMEKNMMGLLLSLIVAVAAFNIITSLGLMVMEKQGEVAILQTQGLTPRQIMMVFMVQGASAGIIGAILGAALGALLASQLNNLMPIIGVLLDGAALPVAIEPLQVIVIALVAMAIALLSTLYPSWRAAATQPAEALRYE
fold change of barcode share [1]: 0.417 ± 0.12
fold change of barcode share [2]: < 0.00607

B2: lolC M165P (protein)
chain: MYQPVALFIGLRYMRGRAADRFGRFVSWLSTIGITLGVMALVTVLSVMNGFERELQNNILGLMPQAILSSEHGSLNPQQLPETAVKLDGVNRVAPITTGDVVLQSARSVAVGVMLGIDPAQKDPLTPYLVNVKQTDLEPGKYNVILGEQLASQLGVNRGDQIRVPVPSASQFTPMGRIPSQRLFNVIGTFAANSEVDGYEMLVNIEDASRLMRYPAGNITGWRLWLDEPLKVDSLSQQKLPEGSKWQDWRDRKGELFQAVRMEKNMMGLLLSLIVAVAAFNIITSLGLMVMEKQGEVAILQTQGLTPRQIMMVFMVQGASAGIIGAILGAALGALLASQLNNLMPIIGVLLDGAALPVAIEPLQVIVIALVAMAIALLSTLYPSWRAAATQPAEALRYE
fold change of barcode share [1]: 0.324 ± 0.15
fold change of barcode share [2]: < 0.0192

B3: lolC F184A (protein)
chain: MYQPVALFIGLRYMRGRAADRFGRFVSWLSTIGITLGVMALVTVLSVMNGFERELQNNILGLMPQAILSSEHGSLNPQQLPETAVKLDGVNRVAPITTGDVVLQSARSVAVGVMLGIDPAQKDPLTPYLVNVKQTDLEPGKYNVILGEQLASQLGVNRGDQIRVMVPSASQFTPMGRIPSQRLANVIGTFAANSEVDGYEMLVNIEDASRLMRYPAGNITGWRLWLDEPLKVDSLSQQKLPEGSKWQDWRDRKGELFQAVRMEKNMMGLLLSLIVAVAAFNIITSLGLMVMEKQGEVAILQTQGLTPRQIMMVFMVQGASAGIIGAILGAALGALLASQLNNLMPIIGVLLDGAALPVAIEPLQVIVIALVAMAIALLSTLYPSWRAAATQPAEALRYE
fold change of barcode share [1]: 0.273 ± 0.072
fold change of barcode share [2]: < 0.00552

B4: lolC F184W (protein)
chain: MYQPVALFIGLRYMRGRAADRFGRFVSWLSTIGITLGVMALVTVLSVMNGFERELQNNILGLMPQAILSSEHGSLNPQQLPETAVKLDGVNRVAPITTGDVVLQSARSVAVGVMLGIDPAQKDPLTPYLVNVKQTDLEPGKYNVILGEQLASQLGVNRGDQIRVMVPSASQFTPMGRIPSQRLWNVIGTFAANSEVDGYEMLVNIEDASRLMRYPAGNITGWRLWLDEPLKVDSLSQQKLPEGSKWQDWRDRKGELFQAVRMEKNMMGLLLSLIVAVAAFNIITSLGLMVMEKQGEVAILQTQGLTPRQIMMVFMVQGASAGIIGAILGAALGALLASQLNNLMPIIGVLLDGAALPVAIEPLQVIVIALVAMAIALLSTLYPSWRAAATQPAEALRYE
fold change of barcode share [1]: 0.432 ± 0.26
fold change of barcode share [2]: 0.0104 ± 0.0051

B5: lolC F184Q (protein)
chain: MYQPVALFIGLRYMRGRAADRFGRFVSWLSTIGITLGVMALVTVLSVMNGFERELQNNILGLMPQAILSSEHGSLNPQQLPETAVKLDGVNRVAPITTGDVVLQSARSVAVGVMLGIDPAQKDPLTPYLVNVKQTDLEPGKYNVILGEQLASQLGVNRGDQIRVMVPSASQFTPMGRIPSQRLQNVIGTFAANSEVDGYEMLVNIEDASRLMRYPAGNITGWRLWLDEPLKVDSLSQQKLPEGSKWQDWRDRKGELFQAVRMEKNMMGLLLSLIVAVAAFNIITSLGLMVMEKQGEVAILQTQGLTPRQIMMVFMVQGASAGIIGAILGAALGALLASQLNNLMPIIGVLLDGAALPVAIEPLQVIVIALVAMAIALLSTLYPSWRAAATQPAEALRYE
fold change of barcode share [1]: 0.376 ± 0.24
fold change of barcode share [2]: < 0.00911

B6: lolC F184D (protein)
chain: MYQPVALFIGLRYMRGRAADRFGRFVSWLSTIGITLGVMALVTVLSVMNGFERELQNNILGLMPQAILSSEHGSLNPQQLPETAVKLDGVNRVAPITTGDVVLQSARSVAVGVMLGIDPAQKDPLTPYLVNVKQTDLEPGKYNVILGEQLASQLGVNRGDQIRVMVPSASQFTPMGRIPSQRLDNVIGTFAANSEVDGYEMLVNIEDASRLMRYPAGNITGWRLWLDEPLKVDSLSQQKLPEGSKWQDWRDRKGELFQAVRMEKNMMGLLLSLIVAVAAFNIITSLGLMVMEKQGEVAILQTQGLTPRQIMMVFMVQGASAGIIGAILGAALGALLASQLNNLMPIIGVLLDGAALPVAIEPLQVIVIALVAMAIALLSTLYPSWRAAATQPAEALRYE
fold change of barcode share [1]: 0.288 ± 0.17
fold change of barcode share [2]: 0.0166 ± 0.011
